Assay results: ChEMBL document CHEMBL4888484, “Replenishing the malaria drug discovery pipeline: Screening and hit evaluation of the MMV Hit Generation Library 1 (HGL1) against asexual blood stage Plasmodium falciparum ,using a nano luciferase reporter read-out” (2022)
Out of some 150,000 compounds screened, about 540 (0.36%) showed an effect of 50% or more. The list shows a part of the results.

The compounds below were run on Plasmodium falciparum (assay: Primary screen in NF54 nanoGlo assay, in single point, at 2uM, 72h; a lower Z score goes with more inhibition). Conditions: timepoint 72 hour.
Format: functional, Erythrocyte

First: CS(=O)(=O)c1ccc(CNC(=O)NC[C@H]2CCCC23CC3)s1
Second: O=C(NS(=O)(=O)Cc1cccnc1)C1CCC(F)(F)CC1
The “% Inhibition” value of the first is higher: -1% for the first, -5% for the second.

First: O=S(=O)(c1cccc(F)c1)N1CCC[C@](CC2CC2)(c2noc(-c3cccnc3)n2)C1
Second: Cc1ccc(S(=O)(=O)N2CCO[C@@H](COc3ccccc3)C2)c(C)c1NS(C)(=O)=O
The “% Inhibition” value of the first is higher: 8% for the first, 0% for the second.

First: C1=C(c2ccccc2)CCN(c2ncnc3c2CCNCC3)C1
Second: N#C[C@@]1(c2ccccc2)CCc2ncnc(N)c2C1
The “% Inhibition” value of the first is higher: 19% for the first, -3% for the second.

Compared with `Cc1cc(C)n(C[C@@H](O)CCc2ccccc2)n1`, `CC(C)C/C=C(\CN1CC[C@H](N)[C@@H](O)C1)c1ccccc1` is higher in “% Inhibition” value: 0% for the first, 7% for the second.

Compared with `COc1ccc(CNCC[C@H](c2ccc(OC(C)C)cc2)C2CCCCC2)cc1OC(C)C`, `COc1cccc(C(=O)N2CCC[C@H](Oc3cccnn3)C2)c1OC` is lower in “% Inhibition” value: 12% for the first, 3% for the second.

First: CN1C(=O)NCC12CCN(C(=O)c1ccnn1-c1ccccc1)CC2
Second: Cc1c(C(=O)Nc2cccnc2-n2cccn2)oc2ccccc12
The “% Inhibition” value of the first is lower: -5% for the first, 6% for the second.

Compared with `Cc1ccc(CNC(=O)Cn2c(C)c(Cc3ccccc3)c(=O)n3nc(-c4ccccc4)nc23)cc1`, `Cc1cccc2c1N(Cc1ccc(OCc3ccccc3)cc1)C(=O)C2=O` is lower in “% Inhibition” value: 13% for the first, -4% for the second.

Going from `CCc1ncoc1C(=O)N[C@@H](C)c1ccc(F)c(Br)c1` to `Cc1ncccc1CNC(=O)N[C@H]1COCC1(C)C`, the “% Inhibition” value falls from -5% to -9%.

First: CCOc1ccccc1N1CCN(c2nnc(C)c(C)n2)CC1
Second: CC(C)(C)OC(=O)NC1(c2noc(-c3ccccc3)n2)CCOCC1
The “% Inhibition” value of the first is lower: -6% for the first, -1% for the second.

Going from `Cc1noc([C@H](C)NS(=O)(=O)c2ccnn2C(C)C)n1` to `Cc1nn(C)c(C)c1C(=O)NS(=O)(=O)CCC1CCCC1`, the “% Inhibition” value rises from 0% to 2%.

Compared with `Cc1ccc(-n2nnnc2N2CCC(C(=O)N3CCCC3)CC2)cc1`, `O=C(CCNC(=O)C1CCCC1)Nc1ccnn1C1CCCC1` is higher in “% Inhibition” value: 6% for the first, 35% for the second.

First: Cc1nnc(CN(Cc2cccc(Br)c2)CC2CC2)n1C
Second: Cc1ccccc1NCC(=O)Nc1ncc(Cc2cccc3ccccc23)s1
The “% Inhibition” value of the first is lower: -10% for the first, 5% for the second.

First: CS(=O)(=O)c1ccc(CNC(=O)NC[C@H]2CCCC23CC3)s1
Second: O=C(NS(=O)(=O)Cc1cccnc1)C1CCC(F)(F)CC1
The Z score of the first is lower: 0.12 for the first, 0.76 for the second.

First: O=S(=O)(c1cccc(F)c1)N1CCC[C@](CC2CC2)(c2noc(-c3cccnc3)n2)C1
Second: Cc1ccc(S(=O)(=O)N2CCO[C@@H](COc3ccccc3)C2)c(C)c1NS(C)(=O)=O
The Z score of the first is lower: -1 for the first, 0.05 for the second.

Compared with `C1=C(c2ccccc2)CCN(c2ncnc3c2CCNCC3)C1`, `N#C[C@@]1(c2ccccc2)CCc2ncnc(N)c2C1` is higher in Z score: -2.53 for the first, 0.39 for the second.

Compared with `Cc1cc(C)n(C[C@@H](O)CCc2ccccc2)n1`, `CC(C)C/C=C(\CN1CC[C@H](N)[C@@H](O)C1)c1ccccc1` is lower in Z score: -0.03 for the first, -1.02 for the second.

Compared with `COc1ccc(CNCC[C@H](c2ccc(OC(C)C)cc2)C2CCCCC2)cc1OC(C)C`, `COc1cccc(C(=O)N2CCC[C@H](Oc3cccnn3)C2)c1OC` is higher in Z score: -1.46 for the first, -0.52 for the second.

Compared with `CN1C(=O)NCC12CCN(C(=O)c1ccnn1-c1ccccc1)CC2`, `Cc1c(C(=O)Nc2cccnc2-n2cccn2)oc2ccccc12` is lower in Z score: 1.01 for the first, -0.76 for the second.

First: Cc1ccc(CNC(=O)Cn2c(C)c(Cc3ccccc3)c(=O)n3nc(-c4ccccc4)nc23)cc1
Second: Cc1cccc2c1N(Cc1ccc(OCc3ccccc3)cc1)C(=O)C2=O
The Z score of the first is lower: -1.68 for the first, 0.44 for the second.

Compared with `CCc1ncoc1C(=O)N[C@@H](C)c1ccc(F)c(Br)c1`, `Cc1ncccc1CNC(=O)N[C@H]1COCC1(C)C` is higher in Z score: 0.65 for the first, 1.64 for the second.

First: CCOc1ccccc1N1CCN(c2nnc(C)c(C)n2)CC1
Second: CC(C)(C)OC(=O)NC1(c2noc(-c3ccccc3)n2)CCOCC1
The Z score of the first is higher: 1.33 for the first, 0.18 for the second.

First: Cc1noc([C@H](C)NS(=O)(=O)c2ccnn2C(C)C)n1
Second: Cc1nn(C)c(C)c1C(=O)NS(=O)(=O)CCC1CCCC1
The Z score of the first is higher: -0.07 for the first, -0.33 for the second.

Going from `Cc1ccc(-n2nnnc2N2CCC(C(=O)N3CCCC3)CC2)cc1` to `O=C(CCNC(=O)C1CCCC1)Nc1ccnn1C1CCCC1`, the Z score falls from -0.71 to -3.93.

Going from `Cc1nnc(CN(Cc2cccc(Br)c2)CC2CC2)n1C` to `Cc1ccccc1NCC(=O)Nc1ncc(Cc2cccc3ccccc23)s1`, the Z score falls from 1.13 to -0.69.
